pIC50: −log10 of the molar value. A lower IC50 marks a more sensitive line; a fit beyond the top or the lowest dose is shown as a bound at that dose. For AUC the same curve is integrated over the 256-fold range of doses and scaled to a fraction; the more sensitive the line, the further below 1. For some of these results: An inferred top dose was derived from the fitted curves, not read from the paper. For some of these results: Where an entry number is given, a second screen of the drug exists; the two often differ.

Common to all, as to experiment: Viability of human cancer cell lines after 72 h of drug (GDSC screen)
Compound in one experiment: C=C1C(=O)O[C@H]2[C@H]1CC/C(C)=C/CC[C@@]1(C)O[C@@H]21 [Parthenolide]
Conditions: top dose 5 µM. As for the experimental part: (§1)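 Human cancer cell lines in 384-well plates, medium with 10% serum, drug for 72 h over a 256-fold dose range (nine 2-fold or five 4-fold steps up to the top dose). Adherent lines were fixed and stained with the nucleic acid dye Syto60, suspension lines read with resazurin; signal relative to control wells, capped at 0 and 100%. One two-parameter sigmoid per drug and line, fitted in a mixed model over all curves with the slope shared within a line.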

Compound in another experiment: COc1cc2ncn(-c3cc(OCc4ccccc4S(C)(=O)=O)c(C#N)s3)c2cc1OC [KIN001-135]
Conditions: top dose 5 µM; top dose inferred. The protocol: as §1

Compound in the next experiment: NC(=O)[C@@H](CCC(F)(F)F)N(Cc1ccc(-c2ncon2)cc1F)S(=O)(=O)c1ccc(Cl)cc1 [BMS-708163]
Conditions: top dose 5 µM; screen: GDSC drug entry 1072; top dose inferred. The protocol: as §1

Compound in another experiment: C=CCc1cccc(/C=N/NC(=O)CN2CCN(Cc3ccccc3)CC2)c1O [PAC-1]
Conditions: top dose 2.56 µM. The protocol: as §1

A word on the pIC50: it is the negative decadic logarithm of the IC50, by convention in mol/L. Take “NCI-H1155 (large cell lung carcinoma, suspension)”: the AUC with Parthenolide was determined as 0.972; in the experiment with KIN001-135 it was 0.988; with BMS-708163, 0.991; with PAC-1 it was 0.993. Moreover, the negative logarithm of the IC50 (pIC50) is less than 5.30 with Parthenolide, less than 5.30 in the experiment with KIN001-135, less than 5.30 with BMS-708163 and less than 5.59 with PAC-1.

As to “NCI-H1299 (large cell lung carcinoma, adherent)”, the AUC in the experiment with Parthenolide was 0.962; with KIN001-135 it was 0.982; with BMS-708163, 0.907; in the experiment with PAC-1, 0.812. Further, the pIC50 with Parthenolide was less than 5.30; with KIN001-135, less than 5.30; in the experiment with BMS-708163, less than 5.30; in the experiment with PAC-1, 5.75.

On to “NCI-H1304 (small cell lung carcinoma, suspension)”, for which the AUC with Parthenolide is 0.886; with KIN001-135 it was 0.983; with BMS-708163 it was 0.968; in the experiment with PAC-1 it was 0.924. For the same cell line, the pIC50 with Parthenolide is less than 5.30; with KIN001-135, less than 5.30; with BMS-708163, less than 5.30; with PAC-1, less than 5.59.

Turning to “NCI-H1355 (lung adenocarcinoma, adherent)”, the AUC with Parthenolide stood at 0.898; in the experiment with KIN001-135 it was 0.972; in the experiment with BMS-708163 it was 0.956; with PAC-1, 0.916. Besides, the pIC50 was less than 5.30 with Parthenolide, less than 5.30 with KIN001-135, less than 5.30 in the experiment with BMS-708163 and less than 5.59 in the experiment with PAC-1.

Consider “NCI-H1395 (lung adenocarcinoma, adherent)”, for which the AUC with Parthenolide worked out at 0.973; in the experiment with KIN001-135 it was 0.947; with BMS-708163, 0.937; in the experiment with PAC-1, 0.965. For the same cell line, the pIC50 with Parthenolide was less than 5.30; in the experiment with KIN001-135, less than 5.30; with BMS-708163, less than 5.30; with PAC-1 it was less than 5.59.

In the case of “NCI-H1417 (small cell lung carcinoma, suspension)”, the AUC with Parthenolide amounted to 0.976; in the experiment with KIN001-135, 0.931; in the experiment with BMS-708163, 0.84; with PAC-1, 0.841. Further, the pIC50 in the experiment with Parthenolide is less than 5.30; in the experiment with KIN001-135, less than 5.30; in the experiment with BMS-708163 it was 5.35; with PAC-1 it was 5.64.

With “NCI-H1436 (small cell lung carcinoma, suspension)”, the AUC with Parthenolide is 0.873; with KIN001-135 it was 0.985; with BMS-708163, 0.986; in the experiment with PAC-1 it was 0.976. In addition, the pIC50 in the experiment with Parthenolide is less than 5.30; with KIN001-135, less than 5.30; with BMS-708163, less than 5.30; with PAC-1 it was less than 5.59.

On to “NCI-H1581 (large cell lung carcinoma, semi-adherent)”, for which the AUC with Parthenolide turned out to be 0.989; with KIN001-135, 0.981; in the experiment with BMS-708163, 0.976; with PAC-1, 0.989. The pIC50 was less than 5.30 in the experiment with Parthenolide, less than 5.30 in the experiment with KIN001-135, less than 5.30 in the experiment with BMS-708163 and less than 5.59 with PAC-1.

With “NCI-H1648 (lung adenocarcinoma, adherent)”, the AUC with Parthenolide is 0.98; in the experiment with KIN001-135, 0.967; in the experiment with BMS-708163, 0.782; with PAC-1, 0.984. The pIC50 was less than 5.30 in the experiment with Parthenolide, less than 5.30 in the experiment with KIN001-135, 5.65 in the experiment with BMS-708163 and less than 5.59 with PAC-1.

For the cell line “NCI-H1666 (lung adenocarcinoma, semi-adherent)”, the AUC with Parthenolide came out at 0.955; with KIN001-135 it was 0.973; with BMS-708163, 0.949; in the experiment with PAC-1 it was 0.973. Besides, the pIC50 was less than 5.30 with Parthenolide, less than 5.30 with KIN001-135, less than 5.30 in the experiment with BMS-708163 and less than 5.59 in the experiment with PAC-1.

In the case of “NCI-H1694 (small cell lung carcinoma, suspension)”, the AUC with Parthenolide worked out at 0.969; with KIN001-135 it was 0.989; with BMS-708163, 0.989; in the experiment with PAC-1, 0.982. Further, the pIC50 was less than 5.30 with Parthenolide, less than 5.30 with KIN001-135, less than 5.30 with BMS-708163 and less than 5.59 in the experiment with PAC-1.

On to “NCI-H1770 (non-small cell lung carcinoma, suspension)”, for which the AUC with Parthenolide was 0.969; with KIN001-135, 0.992; with BMS-708163 it was 0.991; with PAC-1, 0.973. Further, the pIC50 in the experiment with Parthenolide was less than 5.30; with KIN001-135 it was less than 5.30; in the experiment with BMS-708163, less than 5.30; with PAC-1, less than 5.59.

As for “NCI-H1836 (small cell lung carcinoma, suspension)”, the AUC turned out to be 0.988 in the experiment with Parthenolide, 0.986 in the experiment with KIN001-135, 0.984 with BMS-708163 and 0.983 with PAC-1. In addition, the pIC50 with Parthenolide was less than 5.30; in the experiment with KIN001-135, less than 5.30; with BMS-708163, less than 5.30; with PAC-1 it was less than 5.59.

On to “NCI-H1869 (lung squamous cell carcinoma, adherent)”, for which the AUC with Parthenolide turned out to be 0.923; with KIN001-135, 0.98; with BMS-708163, 0.985; with PAC-1 it was 0.932. Besides, the pIC50 with Parthenolide is less than 5.30; with KIN001-135 it was less than 5.30; with BMS-708163, less than 5.30; with PAC-1 it was less than 5.59.

The record behind these values is the supplement of paper PMC4967469.
